Source: article PMC4336329 (PLoS ONE, 2015)
Screen size: about 310,000 compounds; about 2,200 (0.71%) showed an effect of 50% or more. The effect is printed as a negative number. This is one part of the list.

Target: human ether-à-go-go-related gene (hERG) potassium channel (human, UniProt Q12809)
Assay: primary screen, population patch clamp on CHO cells stably expressing hERG

Chain of human ether-à-go-go-related gene (hERG) potassium channel (Q12809 whole entry, looked up): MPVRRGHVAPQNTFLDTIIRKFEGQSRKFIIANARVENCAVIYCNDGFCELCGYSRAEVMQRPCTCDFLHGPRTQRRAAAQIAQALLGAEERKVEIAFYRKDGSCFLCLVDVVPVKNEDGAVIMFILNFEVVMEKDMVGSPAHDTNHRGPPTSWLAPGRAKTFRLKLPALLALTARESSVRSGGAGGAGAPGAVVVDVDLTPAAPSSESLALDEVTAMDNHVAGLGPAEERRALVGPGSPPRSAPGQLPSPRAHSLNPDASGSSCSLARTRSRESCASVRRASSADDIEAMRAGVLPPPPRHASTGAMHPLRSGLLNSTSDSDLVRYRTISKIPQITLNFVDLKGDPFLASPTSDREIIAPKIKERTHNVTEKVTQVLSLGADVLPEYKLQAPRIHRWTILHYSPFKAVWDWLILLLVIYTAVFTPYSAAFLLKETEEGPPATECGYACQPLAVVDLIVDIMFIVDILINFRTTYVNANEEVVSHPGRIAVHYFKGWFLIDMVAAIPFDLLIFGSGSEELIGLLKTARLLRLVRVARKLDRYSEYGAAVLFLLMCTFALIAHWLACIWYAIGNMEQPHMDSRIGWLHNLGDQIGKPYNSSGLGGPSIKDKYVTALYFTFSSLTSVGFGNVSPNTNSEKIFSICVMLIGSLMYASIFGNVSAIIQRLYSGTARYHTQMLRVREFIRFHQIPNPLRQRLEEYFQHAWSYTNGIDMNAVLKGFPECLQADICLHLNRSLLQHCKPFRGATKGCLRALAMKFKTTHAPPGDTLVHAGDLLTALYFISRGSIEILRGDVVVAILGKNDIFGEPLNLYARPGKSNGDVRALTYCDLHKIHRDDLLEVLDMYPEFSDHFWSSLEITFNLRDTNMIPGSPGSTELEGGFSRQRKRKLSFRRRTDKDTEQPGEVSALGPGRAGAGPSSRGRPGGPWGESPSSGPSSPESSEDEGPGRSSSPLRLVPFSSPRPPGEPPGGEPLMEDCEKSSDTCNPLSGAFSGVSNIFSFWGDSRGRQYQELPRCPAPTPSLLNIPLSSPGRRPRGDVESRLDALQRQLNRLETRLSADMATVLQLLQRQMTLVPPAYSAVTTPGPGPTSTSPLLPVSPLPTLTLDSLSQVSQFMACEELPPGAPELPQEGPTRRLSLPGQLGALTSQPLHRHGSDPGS

SMILES | hERG current change (%, negative = inhibition) at 1uM [%]
CC(=O)NC1CC2CCC(C1)N2Cc1ccc(C)cc1 (stereo not shown) | -0.57
COc1ccccc1Nc1ncnc2c1oc1ccccc12.Cl | 16.8
CCn1c(N2CCN(Cc3ccc([N+](=O)[O-])cc3)CC2)nc2ccccc21.Cl | -81.2
CCc1nn2c(NCCOC)cc(C)nc2c1-c1ccc(F)cc1 | 5.3
N=C1C(c2ccccc2)=C(O)C2CCc3ccccc3N12 (stereo not shown) | 12.2
Cc1cccc(NC(=O)CN(c2ccc(C(C)C)cc2)S(=O)(=O)c2c(C)nn(C)c2C)n1 | 9.84
Cc1ccc(/C=N/n2cc(-c3ccccc3)[nH]c2=S)s1 | 12.3
CCOC(=O)c1ccccc1NC(=O)C1CCCO1 (stereo not shown) | 11.3
CSc1nc(-c2ccc(Cl)cc2)c(C#N)c(=O)n1C | 5.02
O=C(NCCS(=O)(=O)c1ccc(Br)cc1)c1ccccc1Cl | -3.15
CCCc1ccccc1OCCNC(=O)c1cc(=O)n(C)c(=O)n1C | 3.36
O=C(CSc1nncc2ccccc12)Nc1ccc(F)cc1 | 15.4
CCCN1CCC2(CC1)NC(CO)(CO)CO2 | 12.7
Cc1ccc(C(=O)N2CCOCC2)c(F)c1F | 3.08
O=C(Cc1ccc(Cl)cc1)NCC(=O)N1CCCCCC1 | 4.89
Oc1ccc(C[C@H]2NCCc3cc(O)c(O)cc32)cc1O | 2.49
O=C(Nc1cccc(-n2cnnn2)c1)c1cc(Cl)ccc1Cl | 10.6
O=C(NC1CCCC1)C(c1ccc(F)cc1)N(C(=O)Cc1cccs1)c1ccc2c(c1)OCCO2 (stereo not shown) | 57.9
NC(=O)COc1ccc(Nc2nnc(-c3ccc(O)cc3)c3ccccc23)cc1 | 2.61
CC1(C)Cc2c(sc(NC(=O)C(=O)N3CCOCC3)c2C#N)CO1 | 13.8
CCc1ccc(NC(=O)CSc2nc3ccccc3c(=O)n2CCN2CCOCC2)cc1 | -10.3
O=C(CN1CCN(c2ccccc2)CC1)Nc1ccc(F)cc1 | -21.6

SMILES | hERG current change (%, negative = inhibition) at 1uM [%]
CCOC(=O)/C(C#N)=C/c1c(N2CCN(C)CC2)nc2c(C)cccn2c1=O | 8.32
CC(C(=O)N1CCCC1)N(C)CC(=O)Nc1cccc(F)c1 (stereo not shown) | 11.9
Cc1nn(-c2ccccc2)c(NC(=O)c2cccs2)c(-c2ccccc2)c1=O | 15.1
c1ccc(CNc2c3c(nc4ncnn24)CCC3)cc1 | 10.1
c1cc2c(nn1)CCc1nonc1-2 | 12.9
CCN1C(=O)[C@H]2[C@@H](c3ccc(C)cc3)N3C(=O)N(c4cccc(Br)c4)C(=O)[C@@]3(CC)[C@H]2C1=O | 11.9
COc1ccc(NC(=O)NNC(=O)c2cc3ccccc3cc2O)cc1 | 12.8
CC(=O)Oc1ccc2c(=O)c(N3C(=O)c4ccccc4C3=O)c(C)oc2c1 | 7.79
COc1ccc(S(=O)(=O)N(Cc2ccccc2)c2ccccc2C(=O)Nc2ccccc2C(=O)NCc2ccco2)cc1 | 12.6
COc1cc(C(=O)NNc2nc3cc4c(cc3s2)OCO4)cc(OC)c1OC | 17
CC(=O)N1c2ccc(S(=O)(=O)N3CCCC(C(=O)Nc4cccc(Cl)c4)C3)cc2CC1C (stereo not shown) | 12.5
CCOc1ccc(NC(=O)C(CC(=O)O)Cc2ccccc2)cc1 (stereo not shown) | 13.8
COC(=O)c1ccccc1NC(=O)COc1ccc(S(=O)(=O)NC(C)C)cc1 | 17.3
CC(C)(CC(=O)O)CC(=O)N1CCN(c2nc3ccc(Cl)cc3s2)CC1 | 3.65
COc1ccc(NC(=O)c2ccccc2NC(=O)C2CCCO2)cc1 (stereo not shown) | 15.3
COC(=O)C(C)Sc1ncnc2c1c(-c1ccccc1)cn2-c1ccc(OC)cc1 (stereo not shown) | 7.18
COc1ccccc1Nc1nnc(SCc2cc(=O)n3ccsc3n2)s1 | 5.82
Cc1c(NC(=O)c2c(O)c3ccccc3n(C)c2=O)c(=O)n(-c2ccccc2)n1C | 20.6
CCS(=O)(=O)N1CCC(C(=O)NCc2ccc(F)cc2Cl)CC1 | 10.6
COc1cc(C2CC(=O)Nc3ccccc3S2)cc(OC)c1OC (stereo not shown) | -5.45
CSc1ccc(S(=O)(=O)NCc2ccc(Cl)cc2Cl)cc1 | -7.26
CCOc1ccc(CN2CCC(n3nccc3NC(=O)C3CC3)CC2)cc1CO | 7.17

SMILES | hERG current change (%, negative = inhibition) at 1uM [%]
C#CC(CO)N(CCN(Cc1ccccc1)C(C#C)CO)Cc1ccccc1 (stereo not shown) | 9.58
O=C1CS/C(=N/N=C/c2ccccc2)N1c1ccc(O)cc1 | 16.1
O=C(c1ccccc1F)N(Cc1ccc(F)cc1)C1CCS(=O)(=O)C1 (stereo not shown) | 9.41
N/C(=N\OS(=O)(=O)c1ccccc1)c1cccnc1 | 6.87
Cc1ccc(Sc2cc(NCCCO)c([N+](=O)[O-])c3nonc23)cc1 | 5.43
COc1ccc(Cc2nc(-c3ccc(-n4cccc4)cc3)no2)cc1OC | 3.64
Cc1cc(C)cc(N(CC(=O)Nc2cccc(C)c2C)S(=O)(=O)c2c(C)[nH]c(=O)[nH]c2=O)c1 | 17.1
CCCC(=O)OCC(=O)Nc1cc(C(C)(C)C)nn1-c1ccccc1 | 11.6
COc1ccccc1N1CCN(C(=O)CNC(=O)c2ccc(Cl)cc2Cl)CC1 | 11.2
COc1ccc(S(=O)(=O)N(CC(=O)NC2CC2)Cc2ccccc2)cc1 | 20.1
Cc1ccc(C)c(NC(=O)Cc2ccc(S(=O)(=O)N3CCCCC3)s2)c1 | 0.363
Cc1ccc(-n2c(CCC(=O)O)ccc2-c2cccs2)cc1 | 6.92
O=c1cc(CSc2nnc(-c3cccnc3)n2-c2ccccc2F)nc2sccn12 | 9.55
COc1ccc(C2=NCN(c3ccc(C)cc3)C(=S)N2)cc1 | 11.8
Cc1cccc(NS(=O)(=O)c2cccc(C(=O)NCCCN3CCCC3=O)c2)c1 | 7.25
O=C(CNc1cccc([N+](=O)[O-])c1)NCCCc1ccccc1 | -29.5
CC(C)(C)n1nnnc1C(c1ccc(Cl)cc1)N1CCSCC1 (stereo not shown) | -2.57
COC(=O)c1ccc(NC(CC(C)C)C(=O)OC)c([N+](=O)[O-])c1 (stereo not shown) | -0.222
O/N=C1/CC/C(=N\O)c2nn(-c3ccccc3)nc21 | 11.5
CC1CN(C(=O)COC(=O)c2ccc(Cl)c(S(=O)(=O)N3CCCCC3)c2)CC(C)O1 (stereo not shown) | 2.27
COc1ccccc1N1C(=O)CC(=O)NC1=O | 16.9
COc1ccc(S(=O)(=O)Nc2ccccc2C)cc1C(=O)N1CCOCC1 | 19.8

SMILES | hERG current change (%, negative = inhibition) at 1uM [%]
Cc1cccc(C2c3[nH]c4ccccc4c3CCN2C(=O)c2ocnc2C)n1 (stereo not shown) | 8.04
CCN(CC)C(=S)SC1CCCCN(C(=O)c2ccc(F)cc2)C1=O (stereo not shown) | 9.25
COCCn1c(SCC(=O)Nc2ccc(S(N)(=O)=O)cc2)nc2ccccc21 | 0.914
Cc1cccc(C)c1OCC(=O)Nc1cccc(-c2nnc(-c3ccccc3)o2)c1 | 10.1
COc1ccc(NC(=O)C2CC(=O)N(c3ccccc3C)C2)c(OC)c1 (stereo not shown) | 9.16
O=C(Cn1c(=O)oc2ccccc21)NCCc1ccccc1 | 4.46
CCOC(=O)c1c(NC(=O)/C=C\C(=O)O)sc(C)c1-c1ccccc1 | 2.5
Cc1csc(SCC(=O)NC(=O)NCc2ccccc2)n1 | 2.15
Cc1cc2occ(CC(=O)N(C)CC(=O)Nc3cccc(F)c3)c2cc1C | 1.48
O=C(Nc1ccc(Nc2ccccc2)cc1)c1ccc(Br)cc1 | 7.85
CCOC(=O)N1CCN(Cc2nc(N)nc(Nc3ccc(C)cc3C)n2)CC1 | 3.69
Cc1ccc(NC(=O)CSc2nc(N)c3cc4c(nc3n2)CCCC4)cc1 | 10
COc1ccc(Cl)cc1C(=O)NNC(=O)CN1C(=O)C2CC=CCC2C1=O (stereo not shown) | 10.8
COc1ccc(C(=O)/C=C/N(C)C)cc1OC | 7.71
Cc1cc(C(=O)CSc2nn3c(=O)c(C(C)(C)C)nnc3s2)c(C)n1C1CC1 | 26.9
Cc1ccc(S(=O)(=O)N2CCN(C(=O)n3ccnc3)CC2)cc1 | 7.26
CN(CCc1ccccn1)C1CCCN(S(=O)(=O)c2ccc(F)c(Cl)c2)C1 (stereo not shown) | -15.6
CS(=O)(=O)O.Oc1ccc(C2CNCCc3c2cc(O)c(O)c3Cl)cc1 (stereo not shown) | -0.982
COc1ccc(S(=O)(=O)N2CCC(C(=O)NCCc3ccccc3)CC2)cc1 | 9.96
COC(=O)c1ccc(-n2cc(-c3ccc(OC)cc3)[nH]c2=S)cc1 | 26.3
CCN(CC)c1ccc(/C=c2/sc3nnc(-c4ccccc4C)n3c2=O)cc1 | 11.9
CCOC(=O)C(NC(=O)CC)(N1CCc2ccccc2C1)C(F)(F)F (stereo not shown) | -2.24
